Measured values published in the supplement of paper PMC6206098.
± gives the uncertainty stated by the source. Shown are siRNA guide strands that differ only in the seed, positions 2 to 7.

Tests used:
M565 = assay: cell viability relative to lipid-only control; higher = less toxic; details: concentration: 10 nM; 96 h; Mus musculus
H460 = assay: as above; details: concentration: 10 nM; 96 h; Homo sapiens
HeyA8 = assay: as above; details: concentration: 10 nM; 96 h; Homo sapiens
3LL = assay: cell viability relative to siNT1 control; HeyA8 human ovarian and H460 human lung cancer; M565 mouse liver and 3LL mouse lung cancer; siNT1 is a non-toxic control siRNA; higher = less toxic; details: concentration: 10 nM; 96 h; Mus musculus
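For cell viability relative to lipid-only control in this document: reverse lipid transfection in 384-well plates, in triplicate, of duplexes on a non-toxic 19mer backbone with passenger strand 2′-O-methylated at positions 1 and 2, luminescence viability read-out.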
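For cell viability relative to siNT1 control in this document: Luminescence-based viability of cells reverse transfected in 384-well plates with lipid-complexed siRNAs built on a non-toxic 19mer backbone whose passenger strand carries 2′-O-methyl groups at positions 1 and 2, triplicates.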

| Sequence | cell viability (M565) | cell viability (H460) | cell viability (HeyA8) | cell viability (3LL) |
| --- | --- | --- | --- | --- |
| UAUAGCAACAUGUAAACCAAA | 81.6 ± 9.3% | 81.6 ± 9.3% | 101 ± 9.7% | 117 ± 16% |
| UCCCCGAACAUGUAAACCAAA | 61.5 ± 11% | 65.2 ± 8.5% | 91.3 ± 8.2% | 108 ± 24% |
| UAUCUUGACAUGUAAACCAAA | 124 ± 19% | 64.7 ± 7.5% | 94.6 ± 7.8% | 117 ± 11% |
| UGAUUAAACAUGUAAACCAAA | 54.7 ± 7.3% | 76.7 ± 22% | 81.8 ± 6.1% | 72.3 ± 16% |
| UAAAAACACAUGUAAACCAAA | 91.9 ± 5.8% | 68 ± 7.7% | 95.7 ± 5.3% | 113 ± 8.3% |
| UGCAUAGACAUGUAAACCAAA | 63.3 ± 2% | 60.3 ± 7.8% | 77.1 ± 3.9% | 84.8 ± 7.5% |
| UAAGCAGACAUGUAAACCAAA | 68 ± 7.5% | 75.4 ± 14% | 98.3 ± 10% | 74.4 ± 7.5% |
| UCACUGUACAUGUAAACCAAA | 26.7 ± 2.9% | 37.1 ± 3.6% | 43.6 ± 3.5% | 73.4 ± 12% |
| UGAAAUAACAUGUAAACCAAA | 72.7 ± 12% | 77 ± 31% | 95.5 ± 5.1% | 100 ± 19% |
| UGUAUCCACAUGUAAACCAAA | 21.5 ± 4.2% | 37.6 ± 1.9% | 7.85 ± 1.3% | 32.7 ± 13% |
| UAUAGACACAUGUAAACCAAA | 101 ± 14% | 67.5 ± 1.4% | 96.5 ± 5.5% | 82.9 ± 7% |
| UGCAUUUACAUGUAAACCAAA | 51.2 ± 9.2% | 55.2 ± 2.3% | 44 ± 2.4% | 67.3 ± 6% |
| UACAGGAACAUGUAAACCAAA | 64.3 ± 2.6% | 74.7 ± 20% | 96.3 ± 6.7% | 81 ± 9.8% |
| UGCACGGACAUGUAAACCAAA | 53.6 ± 9.3% | 31.4 ± 5.1% | 40.2 ± 2.9% | 50.6 ± 7.9% |
| UGUUGGAACAUGUAAACCAAA | 18.4 ± 2% | 41.6 ± 4.7% | 21.1 ± 7.5% | 92.5 ± 3.6% |
| UGAACUCACAUGUAAACCAAA | 33.8 ± 1.4% | 32.6 ± 1.9% | 8 ± 3.1% | 63 ± 18% |
| UAUCAAUACAUGUAAACCAAA | 88.4 ± 24% | 66.7 ± 5.6% | 91.2 ± 5% | 112 ± 9.9% |
| UAAUCGUACAUGUAAACCAAA | 81.6 ± 16% | 83.3 ± 13% | 99.3 ± 8.9% | 111 ± 11% |
| UAUCUCUACAUGUAAACCAAA | 40 ± 9.6% | 37.7 ± 3.2% | 56.8 ± 6.3% | 64.6 ± 2.7% |
| UCUGUACACAUGUAAACCAAA | 63.1 ± 13% | 52.6 ± 2.9% | 54.3 ± 5.7% | 90.4 ± 7% |

| Sequence | cell viability (M565) | cell viability (H460) | cell viability (HeyA8) | cell viability (3LL) |
| --- | --- | --- | --- | --- |
| UUGAAAUACAUGUAAACCAAA | 92.6 ± 8.9% | 56.3 ± 3.4% | 81 ± 6.6% | 26.9 ± 4.1% |
| UUCCCUUACAUGUAAACCAAA | 96.8 ± 10% | 75.8 ± 5% | 81.3 ± 7.9% | 107 ± 14% |
| UCCUGCGACAUGUAAACCAAA | 63.8 ± 3.3% | 74.2 ± 19% | 71.4 ± 1.2% | 84 ± 19% |
| UACCAGAACAUGUAAACCAAA | 34.9 ± 8.5% | 78.7 ± 6.3% | 83.6 ± 5.9% | 78.4 ± 2.5% |
| UUGAAAAACAUGUAAACCAAA | 84.8 ± 9.6% | 69.6 ± 14% | 91.9 ± 9.1% | 94.9 ± 7.6% |
| UCAUUCCACAUGUAAACCAAA | 28.4 ± 8.8% | 14.3 ± 0.21% | 32.8 ± 2.5% | 85.6 ± 14% |
| UUAUUCGACAUGUAAACCAAA | 40.6 ± 4% | 79.5 ± 11% | 99.5 ± 2.6% | 39.1 ± 2.5% |
| UGAAUAAACAUGUAAACCAAA | 67.2 ± 15% | 89.7 ± 16% | 96 ± 2.5% | 110 ± 19% |
| UAGCACAACAUGUAAACCAAA | 23.7 ± 3.3% | 66.8 ± 3.3% | 83.8 ± 7.7% | 68.3 ± 0.98% |
| UGGCUAGACAUGUAAACCAAA | 24.5 ± 3.2% | 30.6 ± 4.4% | 7.68 ± 1.3% | 55.2 ± 7.2% |
| UUCCAUGACAUGUAAACCAAA | 103 ± 6.3% | 53 ± 0.67% | 89.8 ± 9.3% | 107 ± 27% |
| UCCUUAGACAUGUAAACCAAA | 56.5 ± 11% | 79.3 ± 5% | 82.4 ± 5.8% | 102 ± 23% |
| UAAAACGACAUGUAAACCAAA | 99 ± 4.7% | 74.2 ± 8.1% | 101 ± 10% | 108 ± 7.4% |
| UUGACCUACAUGUAAACCAAA | 38.5 ± 1.5% | 54.3 ± 7.7% | 29.1 ± 1.8% | 16.3 ± 3.6% |
| UCAACGCACAUGUAAACCAAA | 64 ± 6.2% | 74.1 ± 6.3% | 56.8 ± 8% | 89.3 ± 16% |
| UGGGGAUACAUGUAAACCAAA | 19.5 ± 4.1% | 34.2 ± 3.1% | 4.79 ± 0.9% | 47.1 ± 35% |
| UUACGUCACAUGUAAACCAAA | 48.1 ± 12% | 106 ± 13% | 85.2 ± 6.3% | 104 ± 11% |
| UUUCUUGACAUGUAAACCAAA | 101 ± 21% | 51.3 ± 7% | 98.4 ± 4.7% | 95.5 ± 7.2% |
| UCACAGUACAUGUAAACCAAA | 35.6 ± 3.7% | 24.2 ± 2.2% | 85.2 ± 4.3% | 63.1 ± 16% |
| UCCUUUUACAUGUAAACCAAA | 140 ± 8.7% | 73.1 ± 7.2% | 74.5 ± 2.6% | 97.6 ± 23% |

| Sequence | cell viability (M565) | cell viability (H460) | cell viability (HeyA8) | cell viability (3LL) |
| --- | --- | --- | --- | --- |
| UGGGCGUACAUGUAAACCAAA | 27.3 ± 1.1% | 17.5 ± 1.6% | 2.36 ± 7.2% | 83.1 ± 4% |
| UCCAGGUACAUGUAAACCAAA | 10.9 ± 2.5% | 29.5 ± 2.6% | 10.3 ± 1.5% | 88.5 ± 28% |
| UCUGCGCACAUGUAAACCAAA | 44.4 ± 8% | 79.4 ± 3.8% | 68.5 ± 2.8% | 69.6 ± 7.7% |
| UAUAUUUACAUGUAAACCAAA | 86.6 ± 3.8% | 66.9 ± 11% | 88.7 ± 14% | 93.5 ± 17% |
| UAGACGGACAUGUAAACCAAA | 78.8 ± 5.9% | 51.9 ± 7.6% | 75.1 ± 8.6% | 81.1 ± 15% |
| UAUACGGACAUGUAAACCAAA | 133 ± 1.5% | 80.5 ± 8% | 98 ± 6.4% | 119 ± 6.2% |
| UAACCACACAUGUAAACCAAA | 46.6 ± 6.5% | 72.8 ± 14% | 68 ± 1.4% | 74.5 ± 12% |
| UGUAUUCACAUGUAAACCAAA | 33.3 ± 1.8% | 49.4 ± 4.6% | 9.51 ± 1.8% | 56.3 ± 16% |
| UGUGCCAACAUGUAAACCAAA | 41 ± 8.7% | 66.4 ± 5.9% | 19.7 ± 3.3% | 22.9 ± 12% |
| UUAUAAUACAUGUAAACCAAA | 66.5 ± 5.1% | 65.9 ± 12% | 88.1 ± 7.9% | 91.9 ± 7.1% |
| UACACUUACAUGUAAACCAAA | 39.9 ± 6.2% | 84 ± 14% | 63.9 ± 6.9% | 71.4 ± 11% |
| UACGUUCACAUGUAAACCAAA | 32.9 ± 2.3% | 58.9 ± 8.8% | 34.4 ± 2.5% | 86.8 ± 14% |
| UUACGUAACAUGUAAACCAAA | 74.5 ± 10% | 99.6 ± 11% | 97.4 ± 5.3% | 102 ± 8.9% |
| UUGCCCUACAUGUAAACCAAA | 31.9 ± 5.6% | 45.6 ± 6.3% | 69.4 ± 3.4% | 11.9 ± 4.3% |
| UCGAGGGACAUGUAAACCAAA | 25.2 ± 1.6% | 71.2 ± 2.2% | 48.4 ± 3.3% | 75.5 ± 26% |
| UUCGUUGACAUGUAAACCAAA | 78.7 ± 12% | 74.9 ± 5% | 88.9 ± 10% | 99.3 ± 24% |
| UCUCCCCACAUGUAAACCAAA | 24.6 ± 6.1% | 50.3 ± 2% | 57.6 ± 4.1% | 67.3 ± 16% |
| UUCUGGGACAUGUAAACCAAA | 16.5 ± 2.1% | 57.2 ± 6.2% | 3.2 ± 0.26% | 2.3 ± 0.19% |
| UACACUCACAUGUAAACCAAA | 37.2 ± 0.73% | 66.3 ± 4.4% | 64.1 ± 5.6% | 40.2 ± 5.2% |
